Data on 22 compounds can be found in article PMC12040169 (PLOS Biology, 2025).

This is one part of the list.

This experiment concerns T1, C. trachomatis L2/434/Bu expressing GFP (CTL2-GFP).
T1 construct: L2/434/Bu GFP intracellular growth in HeLa cells
On the set-up: species or system HeLa; C. trachomatis total inclusion area by high-content imaging, normalised to DMSO. To be noted: total inclusion area; 28.5 h, 10 µM; inhibitor. Summed up: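 Host cell viability was gauged from Hoechst-stained nuclei counts, while chlamydial growth was taken from total inclusion area and inclusion number per well. Cells were fixed and imaged by high-content microscopy once bulk GFP and resorufin fluorescence had been measured.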
For `COc1ccn2c(CCCN(C)C3Cc4ccccc4C3)nc(-c3ccc4c(c3)OCO4)c2c1` [CBK036303], the “% of control remaining” value worked out at 107.307.

In the case of `COc1ccc(CCN2CCCCC2Cn2cncn2)cc1` (stereo not shown) [CBK305095], the “% of control remaining” value amounted to 97.3993.

Turning to `COC(=O)c1ccc2oc(-c3cc(C(O)CNC(C)(C)C)ccc3OC(C)C)cc(=O)c2c1` (stereo not shown) [CBK009944C], the “% of control remaining” value is on record as 56.6454.

For the compound `O=C(NCC1COc2ccccc2O1)N1CCN(c2ccc(F)cc2)CC1` (stereo not shown) [CBK156387], the “% of control remaining” value came to 84.7019.

Take `O=C(c1ccc(F)cc1)[C@H]1CCCN(C(=O)c2ccco2)C1` [CBK284328]: the “% of control remaining” value is given as 72.7561.

As to `NS(=O)(=O)c1ccc(CCNS(=O)(=O)c2ccccc2[N+](=O)[O-])cc1` [CBK264369], the “% of control remaining” value was 106.354.

On to `Cc1c(C)n(C)c2ccc(C(=O)NCCC(=O)N3CCOCC3)cc12` [CBK281669], for which the “% of control remaining” value turned out to be 82.4083.

As to `CC(C)Nc1cncc(Sc2cccc(N)c2)n1` [CBK091434], the “% of control remaining” value is on record as 91.7879.

Consider `O=C(C1CC1)N1CCC2(CC1)Nc1cccnc1-n1cccc12` [CBK284504], for which the “% of control remaining” value worked out at 55.7549.

Regarding `CC1(C)CC(=O)C2=C(C1)c1c(ccc3ccccc13)NC2c1ccc(N2CCC(Cc3ccccc3)CC2)c([N+](=O)[O-])c1` (stereo not shown) [CBK262944], the “% of control remaining” value stood at 109.901.

On to `CC1CN(Cc2c(C(C)C)[nH]c3ncccc23)CC(C)O1` (stereo not shown) [CBK282900], for which the “% of control remaining” value is on record as 102.981.

In the case of `CCOCc1nc2c(c(NCCn3cccn3)n1)CCN(C(C)=O)CC2` [CBK307707], the “% of control remaining” value is 80.2899.

For the compound `Brc1ccc(C2(c3nnc(C4CCCO4)o3)CCOCC2)cc1` (stereo not shown) [CBK306258], the “% of control remaining” value turned out to be 73.9213.

For `CCN(CC)S(=O)(=O)c1ccc(Nc2nc3ccc(Cl)cc3n3cnnc23)cc1` [CBK268259], the “% of control remaining” value was 110.22.

As for `COCc1nnc(S)n1-c1cccc(OC)c1` [CBK288424], the “% of control remaining” value is on record as 87.9194.

For the compound `CC(C)CC1C(=O)NCCN1Cc1ccccc1` (stereo not shown) [CBK005336], the “% of control remaining” value is 107.442.

Regarding `CCC1c2cccn2CCN1C(=O)c1cc(-c2ccccn2)n[nH]1` (stereo not shown) [CBK283224], the “% of control remaining” value came to 116.557.

As for `CCc1nc2ccc(C(=O)Nc3cccc(NS(C)(=O)=O)c3)cn2c1N(C)CCCc1ccccc1` [CBK146670], the “% of control remaining” value is listed as 77.715.

For the compound `COc1ccc(NC(=O)c2ccc(N(C)Cc3ccccc3)c([N+](=O)[O-])c2)cc1` [CBK268094], the “% of control remaining” value is on record as 77.4242.

As for `O=C(CCn1cncn1)N[C@H]1C2CCCCC2[C@@H]1c1ccccc1` (stereo partly shown) [CBK282970], the “% of control remaining” value was found to be 93.8964.

With `Cc1cc(C2CCCN(C(=O)CC3OCCc4sccc43)C2)n[nH]1` (stereo not shown) [CBK305241], the “% of control remaining” value stood at 83.2865.

As for `Cc1nc2nc(-c3ccc(Cl)s3)cn2nc1C` [CBK284565], the “% of control remaining” value is on record as 59.5932.
